Source: the RNAGym collection of RNA variant scans (doi:10.1073/pnas.2313332121)
This sample is rich in variants without activity.

B1: TPR 5TU (parent)
chain: GGAUCUUCUCGAUCUAACAAAAAAGACAAAUCUGCCACAAAGCUUGAGAGCAUCUUCGGAUGCAGAGGCGGCAGCCUUCGGUGGCGCGAUAGCGCCAACGUUCUCAACUAUGACACGCAAAACGCGUGCUCCGUUGAAUGGAGUUUAUCAUG

Variants of: B1
Assay: polymerase ribozyme fitness, log enrichment relative to wild type (log ratio); higher = more active; in vitro selection for triplet polymerase activity
Summary of the method: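 PCR was used to build mutant libraries for each subunit of a heterodimeric triplet polymerase ribozyme, which were then transcribed. A single in vitro selection round, in triplicate, used a frozen incubation at −7 °C and recovered extended constructs by gel excision, streptavidin beads and RT-PCR. Fitness is the logarithm of genotype enrichment relative to wild-type enrichment, averaged over replicates with inverse-variance weights. The logarithm is base 2, and after Illumina sequencing only genotypes with ≥10 input reads and ≥1 read per output were kept.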

Point of comparison: A21U A60G, “polymerase ribozyme fitness (log ratio)” value 0.987. Against it:
- A21U A24G C51U A119U — lower, ≤ -4.2
- A21U A22U U53G — lower, -0.816
- A21C C51G A91G G92A U102A — lower, ≤ -4.2
- A21C C35G C36A G86A G143A — lower, ≤ -4.2
- A21G C27U A28U U55G C93U — lower, ≤ -4.2
- A20U U31G U55A A73G C85G C87G U135C U148C — lower, ≤ -4.2
- A21C U31G G80C A91U C103A C149A — lower, ≤ -4.2
- A21C A137G — lower, -0.909
- A21U A24C G25A G34A G58C A91C U104C A107C A110G — lower, ≤ -4.2
- A20U G84A G86C U90C U148A — lower, ≤ -4.2
- A21C C72G G124C — lower, ≤ -4.2
- A21G G42A C54U G59C G88C G92A — lower, ≤ -4.2
- A21G G67A — lower, ≤ -4.2
- A21C U33A C116G C129U U145A — lower, ≤ -4.2
- A21U A26U U78A G83U G94C — lower, ≤ -4.2
- A21C U44A G48C U56A C85U U104G U139G — lower, ≤ -4.2
- A20U G70A G86A C96A U135G — lower, ≤ -4.2
- A20U U61G C87U C95U — lower, -3.33
- A21U A22U C38U C57U G65C G84A U101C A138G — lower, ≤ -4.2
- A21G G58C — lower, 0.298
- A21G C36U G65A A91C C116U — lower, ≤ -4.2
- A21U A26U G59A U111A A137U A142U — lower, ≤ -4.2
- A20U U44A C93G U111C — lower, ≤ -4.2
- A21U A26C A39G A40C G50A G68C C72G U111C — lower, ≤ -4.2
- A21G C35A A49G C96G — lower, ≤ -4.2
- A21C U44A G48A G59C G74U C75A — lower, ≤ -4.2
- A21G A60G U78C A89U G92A G124U A137G G143U — lower, ≤ -4.2
- A21U A39G G84U — lower, ≤ -4.2
- A21C C32A C96A A98C G136A U144C — lower, ≤ -4.2
- A20U G67U C116G — lower, ≤ -4.2
- A21G A29C G62U — lower, ≤ -4.2
- A21G G86A C87G G100A — lower, ≤ -4.2
- A21G C36U C57A — lower, -0.735
- A21C C32G C43U C57A G71U C85A G88C A91C A147U — lower, ≤ -4.2
- A21C A24U A30C A49U U55G C87U C125U G141U — lower, ≤ -4.2
- A21C G48C U61G A73G A138U U146G — lower, ≤ -4.2
- A21C G71C C75A C95U U101A C105U U144C — lower, ≤ -4.2
- A20U U53A C87U A89C G92C — lower, ≤ -4.2
- A21C G62A G81A C87A A98U C149G — lower, ≤ -4.2
- A20U G83C G92A U127A G128U — lower, ≤ -4.2
- A21G U55G G143C — lower, -1.59
- A21U A26U A39G C79A G141A — lower, ≤ -4.2
- A21C A49C A52C U53G G84U C95U G141A — lower, ≤ -4.2
- A21U C27U A41C A47G A49C U55A G86A — lower, ≤ -4.2
- A21C C38A G84A C93A A107C A115C A122U — lower, ≤ -4.2
- A21C A52G A73U G86C — lower, ≤ -4.2
- A20U U53A U55A C118G — lower, -3.98
- A21C C93U A97U C116U C123U — lower, -0.404
- A20U G58U G68U A73U G81A C125A — lower, ≤ -4.2
- A21C U44A C87A U135A — lower, ≤ -4.2
- A21U A47U G80A C85U A89C C103G G124A — lower, ≤ -4.2
- A21G U45A A49G C85G C96U G152A — lower, ≤ -4.2
- A21U A26G G86U C118U — lower, ≤ -4.2
- A20U G70A G81C A89G U127C G143U — lower, ≤ -4.2
- A21U A29C C95A U101G G126C U135G G143U — lower, ≤ -4.2
- A21C C35G C36G G112A G124A G143C U148G — lower, ≤ -4.2
- A21U A26C C51U C87U A142C — lower, ≤ -4.2
- A21U A28U U31A C75U C85U G117A G136C — lower, ≤ -4.2
- A20U U44C G50U C105U — lower, ≤ -4.2
- A20U U78A G80U A91U C105U A119U U135A G140U U145G — lower, ≤ -4.2
- A21C C95U C129A — lower, -2.89
- A21U A41G A60U C85U C103G C123A — lower, -3.69
- A20U U45G C79G G84A — lower, ≤ -4.2
- A21G A40G G88A A106C — lower, ≤ -4.2
- A21U A29C C87G A113G G141A — lower, ≤ -4.2
- A21C A52U C93U C99A G124A A137C A150U — lower, ≤ -4.2
- A21G A49G C63G C96U A98U C125G — lower, -0.663
- A21C A22U A29U C57A G83U C87U U90C A110U — lower, ≤ -4.2
- A21G A29C U56A A137C — lower, ≤ -4.2
- A21G A52G U102A — lower, -1.09
- A20U U45G G71A C95G A107U A119U C131G G141A U145C — lower, ≤ -4.2
- A21U A22C A28U C43U G83A A91U — lower, ≤ -4.2
- A21G A39U G46A U78G A91C G124U — lower, ≤ -4.2
- A21G A26C A49G G50A A64C U90G G94A G124U — lower, ≤ -4.2
- A21U A24U A52G G71U U90C C123U G126U U144A A147C U151A — lower, ≤ -4.2
- A21G A41U C85A C116U — lower, -1.58
- A21U A39G A66G A73G G86A — lower, ≤ -4.2
- A21G C38U A60G C85U — within 0.2 log units, 1
- A21C U56G G59A C72U A122U — lower, -0.846
- A21C A52G C103G — lower, -1.21
- A21G G25C G34A A49G C72U G92C G112U — lower, ≤ -4.2
- A21G A28C U56A G62C G65A G74C — lower, ≤ -4.2
- A21G G59A G83A C87G — lower, ≤ -4.2
